From the supplement of paper PMC4967469

Assays:
Experiment in all cases: Viability of human cancer cell lines after 72 h of drug (GDSC screen)
OSI-930 = compound: O=C(Nc1ccc(OC(F)(F)F)cc1)c1sccc1NCc1ccnc2ccccc12 [OSI-930]; conditions: top dose 10.24 µM
Method: (§1)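 Human cancer cell lines in 384-well plates, medium with 10% serum, drug for 72 h over a 256-fold dose range (nine 2-fold or five 4-fold steps up to the top dose). Adherent lines were fixed and stained with the nucleic acid dye Syto60, suspension lines read with resazurin; signal relative to control wells, capped at 0 and 100%. One two-parameter sigmoid per drug and line, fitted in a mixed model over all curves with the slope shared within a line.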

HG-5-88-01 = compound: COc1cc(N2CCC(C(N)=O)CC2)ccc1Nc1nc(N)c(Cl)c(Nc2ccccc2S(=O)(=O)C(C)C)n1 [HG-5-88-01]; conditions: top dose 10 µM; top dose inferred
Method: as §1

LAQ824 = compound: O=C(/C=C/c1ccc(CN(CCO)CCc2c[nH]c3ccccc23)cc1)NO [LAQ824]; conditions: top dose 1.024 µM; top dose inferred
Method: as §1

NSC-87877 = compound: O=S(=O)(O)c1ccc2cc(N=Nc3cc(S(=O)(=O)O)c4cccnc4c3O)ccc2c1 [NSC-87877]; conditions: top dose 16 µM; top dose inferred
Method: as §1

Masitinib = compound: Cc1ccc(NC(=O)c2ccc(CN3CCN(C)CC3)cc2)cc1Nc1nc(-c2cccnc2)cs1 [Masitinib]; conditions: top dose 20 µM
Method: as §1

BX-912 = compound: O=C(Nc1cccc(Nc2ncc(Br)c(NCCc3cnc[nH]3)n2)c1)N1CCCC1 [BX-912]; conditions: top dose 10.24 µM; top dose inferred
Method: as §1

Elesclomol = compound: CN(NC(=O)CC(=O)NN(C)C(=S)c1ccccc1)C(=S)c1ccccc1 [Elesclomol]; conditions: top dose 0.2 µM; top dose inferred
Method: as §1

VNLG/124 = compound: CCCC(=O)OCc1ccc(OC(=O)/C=C(C)/C=C/C=C(C)/C=C/C2=C(C)CCCC2(C)C)cc1 [VNLG/124]; conditions: top dose 5.12 µM; top dose inferred
Method: as §1

Bleomycin = compound: Cc1c(N)nc([C@H](CC(N)=O)NC[C@H](N)C(N)=O)nc1C(=O)N[C@H](C(=O)N[C@H](C)[C@@H](O)[C@H](C)C(=O)N[C@H](C(=O)NCCc1nc(-c2nc(C(=O)NCCC[S+](C)C)cs2)cs1)[C@@H](C)O)[C@@H](OC1OC(CO)C(O)C(O)C1OC1OC(CO)C(O)C(OC(N)=O)C1O)c1cnc[nH]1 [Bleomycin]
Method: as §1

Tamoxifen = compound: CC/C(=C(\c1ccccc1)c1ccc(OCCN(C)C)cc1)c1ccccc1 [Tamoxifen]; conditions: top dose 5 µM
Method: as §1

[1] = top dose 50 µM, screen: GDSC drug entry 1378, top dose inferred
[2] = top dose 64 µM, screen: GDSC drug entry 190

| Cell Line | AUC (OSI-930) | IC50 (OSI-930) [µM] | AUC (HG-5-88-01) | IC50 (HG-5-88-01) [µM] | AUC (LAQ824) | IC50 (LAQ824) [µM] | AUC (NSC-87877) | IC50 (NSC-87877) [µM] | AUC (Masitinib) | IC50 (Masitinib) [µM] | AUC (BX-912) | IC50 (BX-912) [µM] | AUC (Elesclomol) | IC50 (Elesclomol) [µM] | AUC (VNLG/124) | IC50 (VNLG/124) [µM] | AUC (Bleomycin; [1]) | IC50 (Bleomycin; [1]) [µM] | AUC (Bleomycin; [2]) | IC50 (Bleomycin; [2]) [µM] | AUC (Tamoxifen) | IC50 (Tamoxifen) [µM] |
| --- | --- | --- | --- | --- | --- | --- | --- | --- | --- | --- | --- | --- | --- | --- | --- | --- | --- | --- | --- | --- | --- | --- |
| NCI-H460 (large cell lung carcinoma, adherent) | 0.985 | > 10.2 | 0.982 | > 10 | 0.382 | 0.0313 | 0.977 | > 16 | 0.987 | > 20 | 0.987 | > 10.2 | 0.364 | 0.00547 | 0.99 | > 5.12 | 0.123 | 0.233 | 0.562 | 5.8 |  |  |
| NCI-H1975 (lung adenocarcinoma, adherent) | 0.943 | > 10.2 | 0.89 | > 10 | 0.266 | 0.0123 | 0.98 | > 16 | 0.918 | > 20 | 0.96 | > 10.2 | 0.403 | 0.0065 | 0.969 | > 5.12 | 0.676 | 10.5 | 0.528 | 4.82 |  |  |
| NCI-H2066 (small cell lung carcinoma, adherent) |  |  | 0.938 | > 10 |  |  |  |  |  |  |  |  |  |  |  |  | 0.958 | > 50 |  |  | 0.977 | > 5 |
| OVCAR-8 (ovary, adherent) | 0.976 | > 10.2 | 0.943 | > 10 | 0.292 | 0.0179 | 0.981 | > 16 | 0.883 | 17.5 | 0.94 | > 10.2 | 0.295 | 0.00356 | 0.972 | > 5.12 | 0.171 | 0.365 | 0.032 | < 0.25 |  |  |
| SF268 (glioma, adherent) | 0.978 | > 10.2 | 0.975 | > 10 | 0.467 | 0.0516 | 0.979 | > 16 | 0.879 | > 20 | 0.872 | > 10.2 | 0.322 | 0.0038 | 0.974 | > 5.12 | 0.263 | 0.619 | 0.356 | 1.55 |  |  |
| SF295 (glioma, adherent) | 0.965 | > 10.2 | 0.956 | > 10 | 0.446 | 0.0449 | 0.984 | > 16 | 0.887 | > 20 | 0.965 | > 10.2 | 0.499 | 0.0124 | 0.972 | > 5.12 | 0.451 | 2.27 | 0.112 | < 0.25 |  |  |
| SK-N-SH (neuroblastoma, adherent) | 0.983 | > 10.2 | 0.704 | 2.34 | 0.286 | 0.016 | 0.987 | > 16 | 0.921 | > 20 | 0.917 | > 10.2 | 0.444 | 0.00882 | 0.987 | > 5.12 | 0.335 | 1.09 | 0.125 | 0.257 |  |  |

A lower IC50 marks a more sensitive line; a limit (>, <) means that the fit lies beyond the doses tested. The AUC spans the tested range (256-fold, ending at the top dose) of the same fit; it is 1 without any effect and falls as sensitivity rises. For part of these data: Any top dose called inferred comes from the curve model; the source does not state it. For part of these data: Drugs with an entry number were screened twice under separate entries, and the two screens often disagree.
